Data reported in PMC4336329 (PLoS ONE, 2015).
About 2,200 (0.71%) of roughly 310,000 compounds showed an effect of 50% or more. The effect is printed as a negative number. This is one part of the list.

Biological target: human ether-à-go-go-related gene (hERG) potassium channel (human, UniProt Q12809)
Assay: primary screen, population patch clamp on CHO cells stably expressing hERG

Sequence of human ether-à-go-go-related gene (hERG) potassium channel (Q12809 whole entry, looked up): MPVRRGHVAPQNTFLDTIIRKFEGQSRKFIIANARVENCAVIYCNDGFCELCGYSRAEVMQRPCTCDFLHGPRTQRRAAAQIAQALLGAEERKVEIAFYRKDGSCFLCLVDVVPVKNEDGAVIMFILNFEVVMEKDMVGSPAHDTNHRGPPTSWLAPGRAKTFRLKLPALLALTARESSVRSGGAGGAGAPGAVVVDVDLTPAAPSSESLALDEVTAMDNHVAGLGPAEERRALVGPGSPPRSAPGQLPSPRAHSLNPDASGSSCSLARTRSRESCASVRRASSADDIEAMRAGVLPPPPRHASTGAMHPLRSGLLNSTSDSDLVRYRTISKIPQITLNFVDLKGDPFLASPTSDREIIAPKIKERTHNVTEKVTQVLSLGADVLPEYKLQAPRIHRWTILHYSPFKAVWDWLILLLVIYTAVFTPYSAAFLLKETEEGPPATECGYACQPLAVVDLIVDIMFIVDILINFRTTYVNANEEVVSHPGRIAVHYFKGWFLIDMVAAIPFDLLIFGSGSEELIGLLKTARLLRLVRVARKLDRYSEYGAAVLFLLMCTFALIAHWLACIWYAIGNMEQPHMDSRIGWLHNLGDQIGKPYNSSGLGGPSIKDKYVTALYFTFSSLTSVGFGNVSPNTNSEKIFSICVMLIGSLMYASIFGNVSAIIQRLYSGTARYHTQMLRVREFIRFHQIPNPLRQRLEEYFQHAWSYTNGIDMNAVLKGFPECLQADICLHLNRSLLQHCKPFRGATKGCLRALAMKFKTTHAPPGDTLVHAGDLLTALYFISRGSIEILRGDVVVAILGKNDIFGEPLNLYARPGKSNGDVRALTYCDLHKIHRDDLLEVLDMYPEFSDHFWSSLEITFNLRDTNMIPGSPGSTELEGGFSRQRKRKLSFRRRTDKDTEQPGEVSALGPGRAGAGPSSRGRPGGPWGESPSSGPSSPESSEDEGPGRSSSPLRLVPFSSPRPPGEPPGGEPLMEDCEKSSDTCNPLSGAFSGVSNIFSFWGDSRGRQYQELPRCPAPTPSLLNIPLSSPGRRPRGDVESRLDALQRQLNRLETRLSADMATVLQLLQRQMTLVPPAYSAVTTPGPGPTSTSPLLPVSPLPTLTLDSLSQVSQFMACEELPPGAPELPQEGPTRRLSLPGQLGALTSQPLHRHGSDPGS

Structure (SMILES) | hERG current change (%, negative = inhibition) at 1uM [%]
O=C(/C(=C/O)N=Nc1ccccc1)c1ccc(Cl)cc1 | 11.6
Cc1c(C)c2c(OCC(=O)O)cc3c(c2oc1=O)CCC(C)(C)O3 | 15.5
O=C(NCC1CCCCC1)c1ccc(Cl)c(S(=O)(=O)N2CCOCC2)c1 | -1.25
CC(=O)c1ccccc1NC(=O)COC(=O)/C=C/c1cccs1 | 17
O=C(NCc1ccco1)C(c1ccc(F)cc1)N(Cc1cccnc1)C(=O)Cn1nnc2ccccc21 (centres unmarked) | 13
Cc1cccc(NC(=O)N2CCCCCC2)c1 | 0.499
COc1cc(OC)cc(C(=O)N[C@H](C(=O)OCC(=O)NC(=O)c2cccn2C)C(C)C)c1 | 6.95
O=C(Cn1cccc1C(=O)c1ccccc1)NCc1ccccc1 | 13
CC(CC(=O)N1CCc2ccccc21)n1cccn1 (centres unmarked) | 4.55
N#C/C(=C/c1cccc(C(F)(F)F)c1)c1nc(CCN2C(=O)c3ccccc3C2=O)cs1 | -1.46
CC(C)c1ccc2nc(NC(=O)C3CC3)sc2c1 | -4.59
Cc1cc(C)c(C(=O)COC(=O)C2CC3CCCC(C2)C3=O)c(C)c1 (centres unmarked) | 5.52
Cc1ccccc1NC(=O)COC(=O)CCc1ccccc1 | 14.3
COc1ccccc1N1CCN(C(=O)NCc2cccc(C(F)(F)F)c2)CC1 | 1.45
CCCCc1[nH]c(=O)c(C#N)c2c1CCCC2 | -3.58
COCCNC(=O)CCCN1C(=O)c2ccccc2Sc2ncccc21 | 16.7
O=C(NCCCN1CCOCC1)C1(c2ccccc2)CCCC1 | 16.7
Cc1cc(-c2nnc3sc(C4CCCCC4)nn23)n[nH]1 | -6.28
COc1ccc(/C(=N\Nc2ccccc2C(=O)O)c2ccccc2)cc1 | 6.96
CC(C)CC(=O)Nc1c2c(nn1-c1ccc(F)cc1)CS(=O)(=O)C2 | 9.35
S=C(Nc1ccc(Cl)cc1)NC1CCN(Cc2ccccc2)CC1 | 4.81
CCOC(=O)N1CCN(C(=O)Cn2c(=O)sc3ccccc32)CC1 | 2.18
CC(=O)c1ccc(N2CCN(S(=O)(=O)c3ccc4c(c3)NC(=O)CC(=O)N4)CC2)cc1 | 11.5
COc1ccc(NS(=O)(=O)c2ccc3oc(SC)nc3c2)cc1 | 1.11
Cc1ccc(N=c2ssnc2Cl)cc1 | 18.3
COc1cc(CN2CCN(c3cccc(C)c3C)CC2)cc(Br)c1O | 1.25
